Measurements published in the supplement of paper PMC3334620.
In all, about 33,000 sequences were measured (“E-score (-0.5 to 0.5)”: median about -0.011, highest 2% from about 0.28 on). The list shows a part of the results.

These sequences were tested against T1, Gcr1 (UniProt P07261) (assay: PBM E-score (8-mer binding enrichment) (E-score (-0.5 to 0.5)); higher = stronger / more preferred TF binding; most listed sequences are background and not binding sites). Details: protein concentration: 100 nM; construct: GST-full length.
T1 sequence: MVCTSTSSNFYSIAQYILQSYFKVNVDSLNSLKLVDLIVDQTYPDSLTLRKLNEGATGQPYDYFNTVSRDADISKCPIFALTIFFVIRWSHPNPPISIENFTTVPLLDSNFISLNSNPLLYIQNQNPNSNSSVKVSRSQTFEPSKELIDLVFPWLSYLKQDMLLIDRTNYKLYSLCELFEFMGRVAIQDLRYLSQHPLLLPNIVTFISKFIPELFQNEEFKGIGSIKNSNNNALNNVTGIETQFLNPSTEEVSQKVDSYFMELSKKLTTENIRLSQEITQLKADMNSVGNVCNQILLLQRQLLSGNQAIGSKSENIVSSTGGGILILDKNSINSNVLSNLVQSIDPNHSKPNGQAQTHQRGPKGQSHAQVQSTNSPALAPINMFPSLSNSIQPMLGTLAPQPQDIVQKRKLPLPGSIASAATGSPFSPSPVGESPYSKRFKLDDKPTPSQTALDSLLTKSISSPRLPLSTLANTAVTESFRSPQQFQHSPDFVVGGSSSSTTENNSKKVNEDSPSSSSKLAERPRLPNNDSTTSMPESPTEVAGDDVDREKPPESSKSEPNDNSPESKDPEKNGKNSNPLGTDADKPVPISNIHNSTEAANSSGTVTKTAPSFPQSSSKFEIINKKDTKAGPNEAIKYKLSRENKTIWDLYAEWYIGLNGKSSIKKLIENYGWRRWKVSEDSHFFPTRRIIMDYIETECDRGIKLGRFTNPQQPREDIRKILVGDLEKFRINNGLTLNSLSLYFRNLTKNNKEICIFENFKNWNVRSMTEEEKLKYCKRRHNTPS
Procedure, shortened: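 Yeast transcription factors carrying a GST tag, as full-length proteins or DNA-binding domains, were produced by PURExpress in vitro transcription/translation. About 100-200 nM protein was applied to universal all-10-mer Agilent arrays, double-stranded by primer extension on fresh or once-stripped slides. Bound protein was detected with fluorescent anti-GST, and scans were normalised with masliner. The Universal PBM Analysis Suite gave each ungapped eight-base word, pooled with its reverse complement, an E-score, a modified Wilcoxon-Mann-Whitney statistic.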

Sequence | PBM E-score
ATCATCGG | -0.11
ATAACAAT | -0.179
TAAGGGGA | 0.099
ACCCCCAC | -0.176
AGCGGGAT | 0.147
AAGGACCA | -0.108
ATATCGCA | -0.182
ATAAAATG | 0.0848
AATATTAC | 0.169
ACTCTGGC | 0.0215
CGTGGTCA | -0.107
CGGATAAC | 0.0482
GAACCGAC | 0.0921
CAGTATCC | 0.1
CTCCCTAC | 0.0639
GGGCGCAC | -0.138
GGAGACTA | 0.0426
ATTGAGTA | -0.0389
CGAAATGA | -0.0527
CAGAAGGC | -0.141
CCGGGAGG | -0.0354
AGACAGAA | 0.183
CTGTTGGA | 0.103
GATATGGC | -0.223
ATTTCATG | -0.0959
CGGTATTA | 0.0762

Sequence | PBM E-score
GAACGTCA | -0.137
GGAAGAGA | -0.0867
CCGCCAGC | -0.0126
ACACGTGT | -0.0595
AGGATGAC | -0.121
ATGGTCGA | -0.147
ACAGATGG | -0.135
ATGAGATG | -0.0573
ACATCACG | -0.087
ACCGCCCC | 0.135
TACACTAA | -0.0726
GCTATATA | 0.0427
CGATCAAC | -0.0794
CCCCGCTC | -0.0964
ACGGTCCA | -0.23
GTCTGCAC | 0.0345
TAGCTGAA | 0.0442
AAAGAGCC | -0.173
ATGGCCTG | -0.242
CTTTGCTC | 0.0865
AGCTTAAG | -0.243
ACCGGACT | -0.0693
CAGCGATG | -0.226
GAGTTGAC | -0.0242
GAGCCAAC | 0.068
CAGTCCTA | -0.183

Sequence | PBM E-score
AGTTCCCG | 0.00184
AGCAAGAA | -0.176
AACTAGGC | 0.122
CGCTTCCG | 0.291
GGACACGA | 0.0493
GGGTTTGA | 0.0551
ATTTCGGA | 0.285
GTGTGTCA | -0.0461
AGGGCTGC | 0.046
GAAACCCC | -0.171
CATCAGAA | 0.0319
ATTAACGA | -0.0803
AACTGCGG | -0.0471
CGACAACG | 0.116
AAGTTTGG | 0.179
ATCTTACG | 0.0919
CCGCCGAG | 0.0244
AATAGAGG | 0.297
CCATCGTA | -0.145
ATTCGGGA | 0.231
AATTCTTA | 0.0587
CCCGGGAA | -0.0106
ACCGCAAA | 0.0408
ATTATCTG | 0.0198
CTGGAGGC | 0.201
ATTGCGGC | -0.131

Sequence | PBM E-score
AGTTTATC | -0.00932
CTTTGCCA | -0.302
AACATGTC | -0.188
GACAGACA | -0.0415
CCGTCCGA | -0.062
ACACGTCC | -0.207
GGTACTTA | 0.221
ACCTTTGC | -0.122
ATAGAGTC | -0.00255
CCAGTGGG | -0.0305
GAACGAAA | -0.13
CATTGACG | -0.0781
CCGTAGCA | 0.0464
AGGTTAAC | -0.299
AAATCGCT | -0.183
CAGTAGCC | -0.0167
CGATACAG | 0.231
CCAATTTC | 0.247
AGAGTATG | -0.153
CCGGGAAG | 0.0216
AAGATCGC | -0.23
CCCCAAAG | 0.146
GGAAATCA | -0.0851
AGGTGCAA | -0.204
GTCGAGAA | -0.0258
GTGAAGAA | 0.0472

Sequence | PBM E-score
ATATCTCC | 0.0918
ATGGACAG | 0.0052
GCAGTACA | -0.192
TACTTGAA | -0.0673
AGACCAAT | -0.019
AGGGCGGG | 0.147
ATATGTTG | 0.0441
AGCGTACT | -0.104
AAGGCCAG | 0.0173
CTACCAAG | 0.0245
CAACGAAG | -0.149
CGAAGTAC | -0.022
CATCTTGG | -0.102
CATCGGCA | -0.113
AGTGATAT | -0.131
TGAGAACA | -0.0354
GAAGGGGC | -0.00738
ACACACAC | -0.0429
CGAGAATA | 0.0782
GGATTACA | 0.18
ATAAAGAC | -0.134
ATTAAAAG | 0.239
AAGCGAGT | 0.0516
ACTTATAG | 0.088
GTCGCGTA | -0.0557
